# Results: the supplement of paper PMC8728848
# Some of the results follow.
# Key:
# Assay in all cases: glycan array binding signal (z-score within array); higher = stronger binding
# Conditions in all cases: glycan notation: IUPAC condensed, linker removed
# [1] = target: Gal(b1-4)GlcNAc(b1-3)Gal(b1-4)GlcNAc(b1-2)[Gal(b1-4)GlcNAc(b1-3)Gal(b1-4)GlcNAc(b1-6)]Man(a1-6)[Gal(b1-4)GlcNAc(b1-3)Gal(b1-4)GlcNAc(b1-2)Man(a1-3)]Man(b1-4)GlcNAc(b1-4)[Fuc(a1-6)]GlcNAc
# How it was run: (§1)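 The binding signal is a Z-score computed within each array. Data were drawn from 3228 arrays in the Consortium for Functional Glycomics database, restricted to those with a known protein sequence. Scores were averaged over arrays of the same protein sequence at different concentrations or buffers, and over linkers, and negative values can be taken as non-binding.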
# [2] = target: Gal(b1-4)GlcNAc(b1-3)Gal(b1-4)GlcNAc(b1-3)Gal(b1-4)GlcNAc
# How it was run: as §1
# [3] = target: Gal(b1-4)GlcNAc(b1-3)Gal(b1-4)GlcNAc(b1-3)Gal(b1-4)GlcNAc(b1-2)Man(a1-3)[Gal(b1-4)GlcNAc(b1-3)Gal(b1-4)GlcNAc(b1-3)Gal(b1-4)GlcNAc(b1-2)Man(a1-6)]Man(b1-4)GlcNAc(b1-4)GlcNAc
# How it was run: as §1
# [4] = target: Gal(b1-4)GlcNAc(b1-3)Gal(b1-4)GlcNAc(b1-3)Gal(b1-4)GlcNAc(b1-2)Man(a1-3)[Gal(b1-4)GlcNAc(b1-3)Gal(b1-4)GlcNAc(b1-3)Gal(b1-4)GlcNAc(b1-2)Man(a1-6)]Man(b1-4)GlcNAc(b1-4)[Fuc(a1-6)]GlcNAc
# How it was run: as §1
# [5] = target: Gal(b1-4)GlcNAc(b1-3)Gal(b1-4)GlcNAc(b1-3)Gal(b1-4)GlcNAc(b1-2)[Gal(b1-4)GlcNAc(b1-3)Gal(b1-4)GlcNAc(b1-3)Gal(b1-4)GlcNAc(b1-6)]Man(a1-6)[Gal(b1-4)GlcNAc(b1-3)Gal(b1-4)GlcNAc(b1-3)Gal(b1-4)GlcNAc(b1-2)Man(a1-3)]Man(b1-4)GlcNAc(b1-4)[Fuc(a1-6)]GlcNAc
# How it was run: as §1
# [6] = target: Gal(b1-4)GlcNAc(b1-3)Gal(b1-4)GlcNAc(b1-3)Gal(b1-4)GlcNAc(b1-3)Gal(b1-4)GlcNAc(b1-2)Man(a1-3)[Gal(b1-4)GlcNAc(b1-3)Gal(b1-4)GlcNAc(b1-3)Gal(b1-4)GlcNAc(b1-3)Gal(b1-4)GlcNAc(b1-2)Man(a1-6)]Man(b1-4)GlcNAc(b1-4)GlcNAc
# How it was run: as §1
# [7] = target: Gal(b1-4)GlcNAc(b1-3)Gal(b1-4)GlcNAc(b1-3)Gal(b1-4)GlcNAc(b1-3)Gal(b1-4)GlcNAc(b1-2)Man(a1-3)[Gal(b1-4)GlcNAc(b1-3)Gal(b1-4)GlcNAc(b1-3)Gal(b1-4)GlcNAc(b1-3)Gal(b1-4)GlcNAc(b1-2)Man(a1-6)]Man(b1-4)GlcNAc(b1-4)[Fuc(a1-6)]GlcNAc
# How it was run: as §1
# [8] = target: Gal(b1-4)GlcNAc(b1-3)Gal(b1-4)GlcNAc(b1-3)Gal(b1-4)GlcNAc(b1-3)Gal(b1-4)GlcNAc(b1-2)[Gal(b1-4)GlcNAc(b1-3)Gal(b1-4)GlcNAc(b1-3)Gal(b1-4)GlcNAc(b1-3)Gal(b1-4)GlcNAc(b1-6)]Man(a1-6)[Gal(b1-4)GlcNAc(b1-3)Gal(b1-4)GlcNAc(b1-3)Gal(b1-4)GlcNAc(b1-3)Gal(b1-4)GlcNAc(b1-2)Man(a1-3)]Man(b1-4)GlcNAc(b1-4)[Fuc(a1-6)]GlcNAc
# How it was run: as §1
# [9] = target: Gal(b1-4)GlcNAc(b1-3)Gal(b1-4)GlcNAc(b1-3)Gal(b1-4)GlcNAc(b1-3)Gal(b1-4)GlcNAc(b1-3)Gal(b1-4)GlcNAc(b1-2)Man(a1-3)[Gal(b1-4)GlcNAc(b1-3)Gal(b1-4)GlcNAc(b1-3)Gal(b1-4)GlcNAc(b1-3)Gal(b1-4)GlcNAc(b1-3)Gal(b1-4)GlcNAc(b1-2)Man(a1-6)]Man(b1-4)GlcNAc(b1-4)GlcNAc
# How it was run: as §1
# [10] = target: Gal(b1-4)GlcNAc(b1-3)Gal(b1-4)GlcNAc(b1-3)Gal(b1-4)GlcNAc(b1-3)Gal(b1-4)GlcNAc(b1-3)Gal(b1-4)GlcNAc(b1-2)Man(a1-3)[Gal(b1-4)GlcNAc(b1-3)Gal(b1-4)GlcNAc(b1-3)Gal(b1-4)GlcNAc(b1-3)Gal(b1-4)GlcNAc(b1-3)Gal(b1-4)GlcNAc(b1-2)Man(a1-6)]Man(b1-4)GlcNAc(b1-4)[Fuc(a1-6)]GlcNAc
# How it was run: as §1
# [11] = target: Gal(b1-4)GlcNAc(b1-3)Gal(b1-4)GlcNAc(b1-3)Gal(b1-4)GlcNAc(b1-3)Gal(b1-4)GlcNAc(b1-3)Gal(b1-4)GlcNAc(b1-2)[Gal(b1-4)GlcNAc(b1-3)Gal(b1-4)GlcNAc(b1-3)Gal(b1-4)GlcNAc(b1-3)Gal(b1-4)GlcNAc(b1-3)Gal(b1-4)GlcNAc(b1-6)]Man(a1-6)[Gal(b1-4)GlcNAc(b1-3)Gal(b1-4)GlcNAc(b1-3)Gal(b1-4)GlcNAc(b1-3)Gal(b1-4)GlcNAc(b1-3)Gal(b1-4)GlcNAc(b1-2)Man(a1-3)]Man(b1-4)GlcNAc(b1-4)[Fuc(a1-6)]GlcNAc
# How it was run: as §1
# [12] = target: Gal(b1-4)GlcNAc(b1-3)Gal(b1-4)GlcNAc(b1-3)Gal(b1-4)GlcNAc(b1-3)Gal(b1-4)GlcNAc(b1-3)Gal(b1-4)GlcNAc(b1-3)Gal(b1-4)GlcNAc(b1-2)Man(a1-3)[Gal(b1-4)GlcNAc(b1-3)Gal(b1-4)GlcNAc(b1-3)Gal(b1-4)GlcNAc(b1-3)Gal(b1-4)GlcNAc(b1-3)Gal(b1-4)GlcNAc(b1-3)Gal(b1-4)GlcNAc(b1-2)Man(a1-6)]Man(b1-4)GlcNAc(b1-4)GlcNAc
# How it was run: as §1
# [13] = target: Gal(b1-4)GlcNAc(b1-3)Gal(b1-4)GlcNAc(b1-3)GalNAc
# How it was run: as §1
# [14] = target: Gal(b1-4)GlcNAc(b1-3)Gal(b1-4)GlcNAc(b1-3)[Gal(b1-4)GlcNAc(b1-3)Gal(b1-4)GlcNAc(b1-6)]GalNAc
# How it was run: as §1
# [15] = target: Gal(b1-4)GlcNAc(b1-3)Gal(b1-4)GlcNAc(b1-6)[Gal(b1-3)]GalNAc
# How it was run: as §1
# [16] = target: Gal(b1-4)GlcNAc(b1-3)Gal(b1-4)[Fuc(a1-3)]GlcNAc(b1-3)Gal(b1-4)[Fuc(a1-3)]GlcNAc
# How it was run: as §1
# [17] = target: Gal(b1-4)GlcNAc(b1-3)GalNAc
# How it was run: as §1
# [18] = target: Gal(b1-4)GlcNAc(b1-3)[Fuc(a1-3)GlcNAc(b1-6)]Gal(b1-4)Glc
# How it was run: as §1
# [19] = target: Gal(b1-4)GlcNAc(b1-3)[Gal(b1-4)GlcNAc(b1-6)]Gal(b1-4)GlcNAc
# How it was run: as §1
# [20] = target: Gal(b1-4)GlcNAc(b1-3)[GlcNAc(b1-6)]Gal(b1-4)GlcNAc
# How it was run: as §1
# [21] = target: Gal(b1-4)GlcNAc(b1-6)Gal(b1-4)GlcNAc
# How it was run: as §1
# [22] = target: Gal(b1-4)GlcNAc(b1-6)GalNAc
# How it was run: as §1
# [23] = target: Gal(b1-4)GlcNAc(b1-6)[Gal(b1-3)]GalNAc
# How it was run: as §1
# [24] = target: Gal(b1-4)GlcNAc(b1-6)[Gal(b1-4)GlcNAc(b1-3)]GalNAc
# How it was run: as §1
# [25] = target: Gal(b1-4)GlcNAc6P
# How it was run: as §1
# [26] = target: Gal(b1-6)Gal
# How it was run: as §1
# [27] = target: Gal3S(b1-3)GalNAc
# How it was run: as §1
# [28] = target: Gal3S(b1-3)GlcNAc
# How it was run: as §1
# [29] = target: Gal3S(b1-3)[Fuc(a1-4)]GlcNAc
# How it was run: as §1
# [30] = target: Gal3S(b1-4)Glc
# How it was run: as §1
binder,measurement,setting,value
Blon2468mut (Bifidobacterium longum) (protein) MTFIKQMMPRYVASMTAGIVAAAMAATCAFAPVANADAVSPTQETIQSTGRHFMVYYRAWRDVTMKGVNTDLPDDNWISMYDIPYGVDVVNIFSYVPSGQEEQAQPFYDKLKSDYAPYLHSRGIKLVRGIDYTGVAVNGFRTFMKEQNKTESEATEADYDAYAKQVIDKYMISVGLDGLDIDMQAHPNDADVKISDNVIRALSKHIGPKSAKPDTTMFLYDTNGSYLNPFKNVAECFDYVAYQQYGSSSDRTARAAADYQPYIGNEFVPGLTFPEEGDMNNRWYDATEPYEESHFYQVASYVREHNLGGMFVYALDRDGRNYDEDLRRIVPSNLLWTKTAIAESEGMALDTAKTAANHYLDRMSLRQVIDDNAASADKARDMVGKAANLYETNKAVLGGDYGEGFSNTYDPTLEAGLLGIDISVLQQQIDKSSEIIGADTAESDAKTALRMARDAAIDGLTGKIYTADQVSAWSQALKAALDATVPVPTPDSTDQNGNRDKVTNHKVQGQPKQLSATGISTDIIVAVGVTLAIAGVALSLSRKLS,glycan array binding signal (z-score),[1],-0.047
same,glycan array binding signal (z-score),[2],-0.064
same,glycan array binding signal (z-score),[3],-0.061
same,glycan array binding signal (z-score),[4],-0.083
same,glycan array binding signal (z-score),[5],-0.013
same,glycan array binding signal (z-score),[6],-0.072
same,glycan array binding signal (z-score),[7],-0.042
same,glycan array binding signal (z-score),[8],-0.054
same,glycan array binding signal (z-score),[9],-0.084
same,glycan array binding signal (z-score),[10],-0.046
same,glycan array binding signal (z-score),[11],-0.061
same,glycan array binding signal (z-score),[12],-0.079
same,glycan array binding signal (z-score),[13],-0.039
same,glycan array binding signal (z-score),[14],-0.075
same,glycan array binding signal (z-score),[15],-0.068
same,glycan array binding signal (z-score),[16],-0.063
same,glycan array binding signal (z-score),[17],-0.059
same,glycan array binding signal (z-score),[18],-0.078
same,glycan array binding signal (z-score),[19],-0.076
same,glycan array binding signal (z-score),[20],-0.028
same,glycan array binding signal (z-score),[21],-0.071
same,glycan array binding signal (z-score),[22],-0.017
same,glycan array binding signal (z-score),[23],-0.042
same,glycan array binding signal (z-score),[24],-0.058
same,glycan array binding signal (z-score),[25],-0.083
same,glycan array binding signal (z-score),[26],-0.055
same,glycan array binding signal (z-score),[27],-0.066
same,glycan array binding signal (z-score),[28],-0.058
same,glycan array binding signal (z-score),[29],-0.054
same,glycan array binding signal (z-score),[30],-0.072
